The other results are listed elsewhere or left out. Measured with an extract: partners may take part in the binding.

The target in the assay is T1, FLI1 (endogenous, THP-1 nuclear extract) (UniProt Q01543).
T1 sequence: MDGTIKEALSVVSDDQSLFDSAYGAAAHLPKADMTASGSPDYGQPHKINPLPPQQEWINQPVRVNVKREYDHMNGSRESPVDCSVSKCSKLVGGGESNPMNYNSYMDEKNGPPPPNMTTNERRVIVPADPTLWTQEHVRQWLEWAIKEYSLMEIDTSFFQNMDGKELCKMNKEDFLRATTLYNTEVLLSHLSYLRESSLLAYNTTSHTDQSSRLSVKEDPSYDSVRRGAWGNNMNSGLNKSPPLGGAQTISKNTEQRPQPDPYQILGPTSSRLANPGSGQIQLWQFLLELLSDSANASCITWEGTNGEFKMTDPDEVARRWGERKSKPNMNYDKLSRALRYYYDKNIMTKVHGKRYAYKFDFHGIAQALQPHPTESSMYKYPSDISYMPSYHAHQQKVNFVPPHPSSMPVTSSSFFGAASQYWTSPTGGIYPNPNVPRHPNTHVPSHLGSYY
The assay is described as follows: nuclear extract protein-binding microarray (nextPBM). Particulars: 20 mM HEPES pH 7.9, 100 mM NaCl, 1 mM DTT, 0.2 mg/mL BSA, 0.02% Triton X-100, 2% milk, 0.4 mg/mL salmon testes DNA; 1 h; temperature not stated; high values mean tight binding; double strand, one strand shown; sequences stand for … in GCCTAGCAC…GTGCTAGGTCTTGATTCGCTTGACGCTGCTG
Sequence TAATAGAGGAAGTTGGCACA showed a binding signal of 3.34 z-score.

Sequence GAAATGAGGAAGTCGATGAC returned a binding signal of 3.19 z-score.

Consider AGGAACAGGAAGTGGGTGCT, for which the binding signal turned out to be 5.27 z-score.

In turn, AAAAAAAGGAAGTGGGCATG registered a binding signal of 3.19 z-score.

AAAAACAGGAAGTCCCATTT returned a binding signal of 4.89 z-score.

In turn, ATAAAAGGGAAGTGGGGCAT displayed a binding signal of 2.4 z-score.

As for GCTATGAGGAACTGAGGGCA, the binding signal stood at 0.534 z-score.

Turning to GAAAAGAGGAAGTCAAATTA, the binding signal amounted to 3.87 z-score.

Regarding AGAAAAAGGAAGTGGGTATG, the binding signal was 3.27 z-score.

In turn, CCAAAGAGGAAGTGTGGGCA came in with a binding signal of 3 z-score.

With ACAAAAAGGAGCTGTGCCCC, the binding signal is -0.391 z-score.

For GCGAAGGGGAAGTCTCGATG, the binding signal stood at 1.74 z-score.

In the case of CAAATGAGGAGCTGATGCGG, the binding signal is -0.371 z-score.

On to CCAAAAAGGAACTGTGCCCC, for which the binding signal was found to be 0.681 z-score.

TAATTGGGGAAGTGGTTTTG registered a binding signal of 2.78 z-score.

For the sequence TTTGGGAGGAAGTGAAACCA, the binding signal is 3.51 z-score.

The sequence CTCAGGAGGAAGTGGAGGCA had a binding signal of 2.51 z-score.

Sequence GACGCTGGGAAGTACTGTGA had a binding signal of 0.527 z-score.

TCTCAGAGGAACTGGCCCAG came in with a binding signal of 0.271 z-score.

With CAAAAGGGGAAGTGCCACAC, the binding signal was found to be 3.31 z-score.

AAAAACAGGAAGTGTGAATT registered a binding signal of 5.19 z-score.

Take AACAAAAGGAACTGGCTAGA: the binding signal came to 0.798 z-score.

For AATTTGAGGAAGTGGGAAAG, the binding signal was 3.16 z-score.

CTAAAGGGGAAGTGCCACAC showed a binding signal of 2.54 z-score.

Turning to AAGAAGAGGAAGTGAGTGCT, the binding signal turned out to be 4.3 z-score.

In turn, AAAAAGAAGAAGTGGGGATA gave a binding signal of 0.979 z-score.

In turn, AGAATGAGGAAGTGCCACAC yielded a binding signal of 3.26 z-score.

Turning to TCTTTGAGGAAGTGAGAAAG, the binding signal worked out at 2.31 z-score.

ATAAAGAGGAACTGGCAGAT came in with a binding signal of 1.71 z-score.

Consider GATAAGGGGAAGTGTATACT, for which the binding signal came to 2.44 z-score.

In the case of AGAAAGGGGAACTCGGCCAC, the binding signal came out at 1.4 z-score.

Sequence TTGAAGAGGAAGTCTTAGAG showed a binding signal of 2.58 z-score.

Sequence TAGAAAGGGAAGTGGCTTTT registered a binding signal of 2.54 z-score.

Sequence AAAAAGAGGAACTGATGTTT returned a binding signal of 3.45 z-score.

CAAAATGGGAAGTGAAGTCA registered a binding signal of 2.32 z-score.

GAAAAGAGGAAATCTTTGAA came in with a binding signal of 2.3 z-score.

Take GAACACAGGAAGTCCCATAG: the binding signal came out at 4.06 z-score.

On to GAAAAGAGGAAGTCTAACTA, for which the binding signal turned out to be 4.07 z-score.

AAAAGAAGGAAGTGGTTTAT yielded a binding signal of 3.22 z-score.

GAAAACAGGAAGTCCCATAT displayed a binding signal of 4.66 z-score.

The values are drawn from PMC6451091.
